Experimental data reported in PubChem BioAssay AID588855 (National Center for Advancing Translational Sciences (NCATS), 2011).
Where “and” joins values, the source holds several entries; their conditions need not be identical. Identical values can stand only once. Hit rate of the full screen: of about 410,000 compounds, about 5,000 (1.2%) were called active. A call without a number means that no potency is given here. Inconclusive means that the source gave no clear call. Such entries were picked first, then a sample of the others. Calls come from the whole dose curve; as a rule, active = well fitted inhibition curve with a large enough effect; inconclusive = small, poorly fitted or top-dose-only effect; inactive = no such curve, though single readings can be large or run the other way. Potencies beside an inconclusive call are fits to weak or partial responses and may not hold up.

Experiment: qHTS for Inhibitors of TGF-b; note: nearly all actives have a fitted effect of over 65% in size
Settings: HepG2 CAGA-GFP TGF-b/SMAD3 reporter, GFP fluorescence, 18 h, TGF-beta stimulated, 500 pg/mL final; series mostly up to 46.1 µM
Method in brief: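 HEPG2 CAGA-GFP, 1000 cells/well; 2 h settle, 37 C; cpd via pin tool; TGF-b 500 pg/mL final; 18 h, 37 C; GFP imaging ex488/em500-530; %Activity normalised to -TGF-b and +DMSO controls; CRC fit, curve class.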
Potency is the fitted concentration of half-maximal effect; tags give direction and shape of the fitted curve.

Row | Compound | Potency
1 | c1ccc(-c2ccc(CN3Cc4ccccc4-n4nncc4C3)cc2)cc1 | inactive
2 | O=C1C(=O)c2cccc3cccc1c23 | inconclusive: 2.82 µM [inhibitor, single point]
3 | Cc1cc(OCC(=O)N2CCC(C(=O)NCC(C)C)CC2)c2c3c(c(=O)oc2c1)CCCC3 | inactive
4 | O=C(Cc1cccc(C(F)(F)F)c1)N1CCN(CC(=O)N2CCCC2)CC1 | inactive
5 | CCCCCCCCCCCCCCCC[n+]1ccccc1 | active: 12.6 µM and active: 15.8 µM
6 | COc1ccc(CCNC(=O)c2c(N)n(CCN3CCOCC3)c3nc4ccccc4nc23)cc1OC | inconclusive: 35.5 µM [inhibitor, single point]
7 | CCOC(=O)C(C)(CC)NC(=O)CSP(=S)(OCC)OCC (stereo unspecified) | inactive
8 | CC(C)(C)n1nnnc1C(c1cccc2ccccc12)N1CCC2(CC1)C(=O)NCN2c1ccccc1 (stereo unspecified) | inconclusive: 35.5 µM [inhibitor, single point]
9 | N#Cc1ccc(NC(=O)CN2C(=O)NC3(CCCCCCC3)C2=O)cc1Cl | inconclusive: 35.5 µM [inhibitor, single point]
10 | COc1ccccc1N1CCN(Cc2ccccc2)CC1 | inactive
11 | CCCCn1nnnc1C(C1CC1)N1CCC(n2c(=O)[nH]c3ccccc32)CC1 (stereo unspecified) | inactive
12 | Cc1cccc(-n2nc(C)c(C(=O)N3CCN(c4ccccc4)CC3)c2-n2cccc2)c1 | inconclusive: 6.31 µM [inhibitor, single point]
13 | COc1ccc(CCN)cc1O | inactive
14 | Clc1ccc(C(c2ccc(Cl)cc2)n2cc[n+](CC(OCc3ccc(Cl)cc3Cl)c3ccc(Cl)cc3Cl)c2)cc1 (stereo unspecified) | active: 17.8 µM
15 | COc1cc(C(=O)N2Cc3ccc(Br)cc3-n3nncc3C2)cc(OC)c1OC | inconclusive: 3.98 µM [inhibitor, partial curve, poor fit]
16 | Cc1ccc(CSCCNS(=O)(=O)c2ccc([N+](=O)[O-])cc2)cc1 | inconclusive: 35.5 µM [inhibitor, single point]
17 | CCOc1cc2c(cc1OCC)-n1cccc1C(c1ccc(OC)cc1)NC2 (stereo unspecified) | inactive
18 | O=[N+]([O-])c1ccc(C[n+]2c(-c3ccccc3)cc(-c3ccccc3)cc2-c2ccccc2)cc1 | inactive
19 | C[C@@H]1CN([C@H](C)CO)C(=O)CCCn2nncc2CO[C@@H]1CN(C)C(=O)Oc1ccccc1 | inactive
20 | COC(=O)C1=C(c2cccc(OCc3ccccc3)c2)C[C@@H]2CC[C@H]1N2C(=O)NNCc1ccccc1 | inconclusive: 11.2 µM [inhibitor, single point]
21 | Cc1c(P(=S)(c2ccccc2)c2ccccc2)[n+]2ccccc2n1C | inactive
